Data taken from PubChem BioAssay AID194 (DTP/NCI, 2004).
Inconclusive results are not listed. A number of entries come with more than one value. They are shown here; other results are not. An entry can have further records. Values given together differ for a reason that is not stated; some may be repeats, others may stem from another dose, organism or construct than stated. *1 amine or outer side, *2 acyl side, *3 side chain or, on linkers, in order; H or OH if unused. Where a SMILES comes first, the peptide text is derived from it. Bridges are numbered along the chain shown (N, C = ends). Roman numbers before positions name the chains, in order. [ ]: non-standard residue; d: D form. Actinocin(9to1) = Cc1c2oc3c(C)ccc(C(=O)[*:1])c3nc-2c(C(=O)[*:2])c(N)c1=O; aThr = C[C@H](O)[C@H](N)C(=O)O; NMeV = CN[C@H](C(=O)O)C(C)C; Sar = CNCC(=O)O

Tested on: BDF1 mice, B16 melanoma s.c., survival/tumor T/C
Assay: NCI In Vivo Anticancer Drug Screen. Data for tumor model B16 Melanoma (subcutaneous) in B6D2F1 (BDF1) mice
Procedure: The antitumor activity of compounds was measured in mice bearing transplantable tumors. Survival or tumor size were measured and the results are expressed as the measurement made in the treated group (T) divided by the measurement made in the vehicle treated control group (C). The tumor model used in this assay is B16 Melanoma (subcutaneous) in B6D2F1 (BDF1) mice

[1] = endpoint: median tumor weight (est.), dose: 1.0 mg/kg/injection, schedule: Q01DX009 (ip), vehicle: saline, higher = larger tumour
[2] = endpoint: median tumor weight (est.), dose: 2.0 mg/kg/injection, schedule: Q01DX009 (ip), vehicle: saline, higher = larger tumour
[3] = endpoint: median tumor weight (est.), dose: 4.0 mg/kg/injection, schedule: Q01DX009 (ip), vehicle: Klucel (hydroxypropylcellulose) (HPC), higher = larger tumour
[4] = endpoint: median tumor weight (est.), dose: 25.0 mg/kg/injection, schedule: Q01DX009 (ip), vehicle: Klucel (hydroxypropylcellulose) (HPC), higher = larger tumour
[5] = endpoint: median tumor weight (est.), dose: 25.0 mg/kg/injection, schedule: Q01DX009 (ip), vehicle: saline, higher = larger tumour
[6] = endpoint: median tumor weight (est.), dose: 0.25 mg/kg/injection, schedule: Q01DX009 (ip), vehicle: saline, higher = larger tumour
[7] = endpoint: median tumor weight (est.), dose: 0.5 mg/kg/injection, schedule: Q01DX009 (ip), vehicle: saline, higher = larger tumour

## COc1cccc2c1C(=O)c1c(O)c3c(c(O)c1C2=O)C[C@@](O)(C(C)=O)C[C@@H]3OC1CC(N)C(O)C(C)O1 (some centres not stated)
[1]
  T/C: 86 % of control, 89 % of control, 113 % of control
[2]
  T/C: 58 % of control and 106 % of control

## O=NN(CCCl)C(=O)NC1CCCCC1
[3]
  T/C: 47 % of control, 49 % of control, 585 % of control
endpoint: median tumor weight (est.), dose: 12.0 mg/kg/injection, schedule: Q01DX001 (ip), vehicle: Klucel (hydroxypropylcellulose) (HPC), higher = larger tumour
  T/C: 72 % of control and 589 % of control

## S=c1nc[nH]c2nc[nH]c12
[4]
  T/C: 89 % of control and 400 % of control
endpoint: median tumor weight (est.), dose: 50.0 mg/kg/injection, schedule: Q01DX009 (ip), vehicle: Klucel (hydroxypropylcellulose) (HPC), higher = larger tumour
  T/C: 82 % of control and 158 % of control

## O=c1[nH]c(=O)n(C2CC(O)C(CO)O2)cc1F (configuration not stated)
[5]
  T/C: 66 % of control and 451 % of control

## O=P1(N(CCCl)CCCl)NCCCO1 (configuration not stated)
[5]
  T/C: 50 % of control, 72 % of control, 93 % of control
endpoint: median tumor weight (est.), dose: 150.0 mg/kg/injection, schedule: Q01DX001 (ip), vehicle: saline, higher = larger tumour
  T/C: 17 % of control, 36 % of control, 92 % of control
endpoint: median tumor weight (est.), dose: 300.0 mg/kg/injection, schedule: Q01DX001 (ip), vehicle: saline, higher = larger tumour
  T/C: 4 % of control, 17 % of control, 60 % of control

## CC[C@]1(O)C[C@H]2CN(CCc3c([nH]c4ccccc34)[C@@](C(=O)OC)(c3cc4c(cc3OC)N(C=O)[C@H]3[C@@](O)(C(=O)OC)[C@H](OC(C)=O)[C@]5(CC)C=CCN6CC[C@]43[C@@H]65)C2)C1
[6]
  T/C: 36 % of control, 73 % of control, 513 % of control
[7]
  T/C: 26 % of control, 38 % of control, 99 % of control

## Nc1n[nH]c(N)n1
endpoint: median tumor weight (est.), dose: 100.0 mg/kg/injection, schedule: Q01DX009 (ip), vehicle: saline, higher = larger tumour
  T/C: 93 % of control and 464 % of control
endpoint: median tumor weight (est.), dose: 200.0 mg/kg/injection, schedule: Q01DX009 (ip), vehicle: saline, higher = larger tumour
  T/C: 103 % of control and 758 % of control
endpoint: median tumor weight (est.), dose: 400.0 mg/kg/injection, schedule: Q01DX009 (ip), vehicle: saline, higher = larger tumour
  T/C: 100 % of control and 592 % of control
endpoint: median tumor weight (est.), dose: 800.0 mg/kg/injection, schedule: Q01DX009 (ip), vehicle: saline, higher = larger tumour
  T/C: 74 % of control and 737 % of control

## CN1c2c(nc(N)[nH]c2=O)NCC1CCNc1ccc(C(=O)NC(CCC(=O)O)C(=O)O)cc1 (configuration not stated)
endpoint: median survival time, dose: 260.0 mg/kg/injection, schedule: Q01DX009 (ip), vehicle: saline, higher = longer survival
  T/C: 101 % of control and 167 % of control
endpoint: median survival time, dose: 400.0 mg/kg/injection, schedule: Q01DX009 (ip), vehicle: saline, higher = longer survival
  T/C: 98 % of control and 154 % of control
endpoint: median survival time, dose: 600.0 mg/kg/injection, schedule: Q01DX009 (ip), vehicle: saline, higher = longer survival
  T/C: 110 % of control and 177 % of control

## O=c1[nH]cc(F)c(=O)[nH]1
endpoint: median tumor weight (est.), dose: 20.0 mg/kg/injection, schedule: Q01DX009 (ip), vehicle: Klucel (hydroxypropylcellulose) (HPC), higher = larger tumour
  T/C: 25 % of control and 163 % of control

## O=C1C(=O)c2ccccc2C(O)=C1CC=C(Cl)Cl
[4]
  T/C: 48 % of control, 67 % of control, 83 % of control

## CC1CCC(NC(=O)N(CCCl)N=O)CC1 (configuration not stated)
endpoint: median tumor weight (est.), dose: 2.0 mg/kg/injection, schedule: Q01DX009 (ip), vehicle: Klucel (hydroxypropylcellulose) (HPC), higher = larger tumour
  T/C: 30 % of control and 106 % of control
[3]
  T/C: 12 % of control and 57 % of control

## CN(C)/N=N/c1nc[nH]c1C(N)=O
endpoint: median tumor weight (est.), dose: 37.5 mg/kg/injection, schedule: Q01DX009 (ip), vehicle: Klucel (hydroxypropylcellulose) (HPC), higher = larger tumour
  T/C: 53 % of control and 370 % of control
endpoint: median tumor weight (est.), dose: 75.0 mg/kg/injection, schedule: Q01DX009 (ip), vehicle: Klucel (hydroxypropylcellulose) (HPC), higher = larger tumour
  T/C: 74 % of control and 278 % of control

## CN(Cc1cnc2nc(N)nc(N)c2n1)c1ccc(C(=O)N[C@@H](CCC(=O)O)C(=O)O)cc1
[7]
  T/C: 40 % of control and 94 % of control
[1]
  T/C: 62 % of control and 192 % of control
[2]
  T/C: 51 % of control and 170 % of control
endpoint: median tumor weight (est.), dose: 4.0 mg/kg/injection, schedule: Q01DX009 (ip), vehicle: saline, higher = larger tumour
  T/C: 81 % of control and 192 % of control

## Cc1c(N)nc([C@H](CC(N)=O)NC[C@H](N)C(N)=O)nc1C(=O)N[C@H](C(=O)N[C@H](C)[C@@H](O)[C@H](C)C(=O)N[C@H](C(=O)NCCc1nc(-c2nc(C(=O)NCCC[S+](C)C)cs2)cs1)[C@@H](C)O)C(OC1OC(CO)C(O)C(O)C1OC1OC(CO)C(O)C(OC(N)=O)C1O)c1cnc[nH]1 (some centres not stated)
endpoint: median tumor weight (est.), dose: 2.0 mg/kg/injection, schedule: Q01DX009 (ip), vehicle: water, higher = larger tumour
  T/C: 20 % of control and 97 % of control
endpoint: median tumor weight (est.), dose: 3.0 mg/kg/injection, schedule: Q01DX009 (ip), vehicle: saline, higher = larger tumour
  T/C: 11 % of control, 26 % of control, 40 % of control
endpoint: median tumor weight (est.), dose: 4.0 mg/kg/injection, schedule: Q01DX009 (ip), vehicle: water, higher = larger tumour
  T/C: 14 % of control and 60 % of control
endpoint: median tumor weight (est.), dose: 6.0 mg/kg/injection, schedule: Q01DX009 (ip), vehicle: saline, higher = larger tumour
  T/C: 28 % of control and 57 % of control

## Cc1c2oc3c(C)ccc(C(=O)N[C@@H]4C(=O)N[C@H](C(C)C)C(=O)N5CCC[C@H]5C(=O)N(C)CC(=O)N(C)[C@@H](C(C)C)C(=O)O[C@H]4C)c3nc-2c(C(=O)N[C@@H]2C(=O)N[C@H](C(C)C)C(=O)N3CCC[C@H]3C(=O)N(C)CC(=O)N(C)[C@@H](C(C)C)C(=O)O[C@H]2C)c(N)c1=O (I: [aThr][dV]P[Sar][NMeV] / II: [aThr][dV]P[Sar][NMeV]; ester I:1-I:C, II:1-II:C; linker I:N-II:N via Actinocin(9to1))
endpoint: median tumor weight (est.), dose: 13.0 micrograms/kg/injection, schedule: Q01DX009 (ip), vehicle: saline, higher = larger tumour
  T/C: 110 % of control, 113 % of control, 587 % of control
endpoint: median tumor weight (est.), dose: 25.0 micrograms/kg/injection, schedule: Q01DX009 (ip), vehicle: saline, higher = larger tumour
  T/C: 80 % of control, 121 % of control, 532 % of control
endpoint: median tumor weight (est.), dose: 50.0 micrograms/kg/injection, schedule: Q01DX009 (ip), vehicle: saline, higher = larger tumour
  T/C: 38 % of control, 78 % of control, 330 % of control

## C1CN1c1nc(N2CC2)nc(N2CC2)n1
endpoint: median tumor weight (est.), dose: 0.13 mg/kg/injection, schedule: Q01DX009 (ip), vehicle: saline, higher = larger tumour
  T/C: 77 % of control and 484 % of control
[6]
  T/C: 50 % of control and 504 % of control
[7]
  T/C: 75 % of control and 156 % of control
endpoint: median tumor weight (est.), dose: 0.5 mg/kg/injection, schedule: Q08DX002 (ip), vehicle: saline, higher = larger tumour
  T/C: 99 % of control and 492 % of control
endpoint: median tumor weight (est.), dose: 1.0 mg/kg/injection, schedule: Q08DX002 (ip), vehicle: saline, higher = larger tumour
  T/C: 63 % of control and 363 % of control
endpoint: median tumor weight (est.), dose: 2.0 mg/kg/injection, schedule: Q08DX002 (ip), vehicle: saline, higher = larger tumour
  T/C: 64 % of control and 591 % of control
